# The list shows a part of the results.
# T1: UNK ZnF1-3 (human, UniProt Q9C0B0 31-174)
# T1 sequence: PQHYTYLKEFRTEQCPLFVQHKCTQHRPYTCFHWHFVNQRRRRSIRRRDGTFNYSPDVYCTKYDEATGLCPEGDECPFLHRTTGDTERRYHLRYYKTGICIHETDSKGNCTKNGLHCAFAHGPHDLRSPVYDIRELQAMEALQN
# B1: chr6:40197388:40197389:+_ENSMUSG00000057716_ENSMUST00000061740|mus_mus|mus_mus_mus_hu_False|58_108 (ssRNA)
# RNA: GGGAGUUCUACAGUCCGACGAUCGAGUUGUCAGUUUGGAUUUAUUCCACCUCUGUUUGGGUGCUAGCCACUAAGACAGCUAUUUUGGGAUUCAUGGCCUUGAAUAUCAAGAGGGAAAGGAAGAGGAUGGAAAGAGUCAAGAGUCAACAGAGGAUUGAGCAUCA
# B2: chr12:70286429:70286430:+_ENSMUSG00000043998_ENSMUST00000060579|mus_hu|FALSE|FALSE (ssRNA)
# RNA: GGGAGUUCUACAGUCCGACGAUCGCACUCUUGCUGCUUCAGUUUCCACAUCUUUUUGAAGACAUGGUAAAAGUCUGGGGCUAAGUAGUGAUCCUCUUCUAGGAAAAGUAUAAGGCCAGCAUAAUCUCGAAGAAUUUUCACUCUCAACAGAGGAUUGAGCAUCA
# B3: 103177299_103180828_858_CDS_ENSG00000089902_ENST00000570597|human|control|control (ssRNA)
# RNA: GGGAGUUCUACAGUCCGACGAUCUGCUCUAUUUUUAGCUUGUGUGCUAUGUUUUUCUUUUUUGACCUGAGGAACUGUCUCAGUAGGGGGAACCUCCUUUUUGCUUUCCUUGUUUUGAUCAACCUCAAUGUCAAUGGGAUUGUUCAACAGAGGAUUGAGCAUCA
# B4: 129792727_129792847_1952_3pUTR_ENSG00000077684_ENST00000452328|human|control|control (ssRNA)
# RNA: GGGAGUUCUACAGUCCGACGAUCCAUCACCACACCAUUUUUCUGUUGUGCUGAUAUGAGACGUGCUUCUGCAAAGGUCUUUUCUAAACCCAAAAAGCUCUCUGGGACCACCAUCCCCUCCCUUCUACCACACAGGUCUGGCUGCAACAGAGGAUUGAGCAUCA
# B5: chr5:71490416:71490417:+_ENSG00000131711_ENST00000296755|hu_hu|motif|central (ssRNA)
# RNA: GGGAGUUCUACAGUCCGACGAUCAUACUGCAUUUCCUUGCUGCUCUUGACUGGAUUAAGCACAUACAUCUCAAGUUUACCGGCUCCCAUUUUUUGGAAAAGAAUGACAGGAUCAAUAGUAUUGCCUACACUUCUAAACAGAGGCAACAGAGGAUUGAGCAUCA
# B6: chr3:176740097:176740098:-_ENSG00000177565_ENST00000430069|hu_mus|hu_hu_hu_mus_True|18_68 (ssRNA)
# RNA: GGGAGUUCUACAGUCCGACGAUCUGUUUUGUAUACCACAAAAGGAGGCACUUUCAGUAUCUGCAAAAGGUAUUUAAUCCUAAAACAUACUCACCUAGAGGAUAACUCAGGAAAACAUCAAUACAAUCUCUAAGACCUACUCCACAACAGAGGAUUGAGCAUCA
# B7: chr11:18503389:18503390:-_ENSG00000074319_ENST00000251968|hu_hu|hu_hu_hu_mus_True|38_38 (ssRNA)
# RNA: GGGAGUUCUACAGUCCGACGAUCAUUUUCCAUUUUCUCCAGAGCAGAACUUAGUUCUUCAUCCUUCUUUUUCAAAAGUUCUAUGUUUUUAUCAACUUCGGCUACUUCUUGAUCUAAGCGGGUGACCAUCUCUUCCAGUUUCUGCAACAGAGGAUUGAGCAUCA
# B8: chr9:79618081:79618082:-_ENSMUSG00000032328_ENSMUST00000034878|mus_hu|FALSE|FALSE (ssRNA)
# RNA: GGGAGUUCUACAGUCCGACGAUCGGUGCCUUAACUAAAGAGAAUGUGCAUACACAUUGCUAUUUGACCUAUAUGCAAAAGUGGAAUGAAAUACAUAGGAAAUUAAGGUUACUGCUUUCAAAAAUUUCUGGAAUAUUAGUACUUCAACAGAGGAUUGAGCAUCA
# B9: chr3:71021771:71021772:-_ENSG00000114861_ENST00000475937|hu_mus|FALSE|FALSE (ssRNA)
# RNA: GGGAGUUCUACAGUCCGACGAUCCACUGUCCAUACUGCCCCUUUAACGUUCUCUACUCGCACAAAACACUUGUGGAGACUAAGAUUAUGACGCACUGCAUUCUUCCACGUGGCUGCAUUGCGUCGGAAGUAAGCAAACAUUCGCAACAGAGGAUUGAGCAUCA
# B10: 76668049_76668169_1430_3pUTR_ENSG00000089916_ENST00000261530|human|control|control (ssRNA)
# RNA: GGGAGUUCUACAGUCCGACGAUCUGUGGCAUUUUAAAAAAUGUAGCAGUAGUUGCGUCUGUGGCUUUCUCUGCUGCAGAGGUCCUCACCAACCACUCAGAGCUGGGUGAUUUGGGGGCUUGUGAUGCUGGUGUGGUUGGCUCCCAACAGAGGAUUGAGCAUCA
# B11: chrX:35985205:35985206:-_ENSMUSG00000048970_ENSMUST00000058265|mus_hu|motif|central (ssRNA)
# RNA: GGGAGUUCUACAGUCCGACGAUCAGGAGCUUGUAGGUGAUGAUGCUCAUGGUGGUGCAUUCUAUUUCCAUGACCAAUCCGGAUGUGUCCUAGCAUAGUGAUCAAAGCACAGAAAAUGCUUCCAAGCAUCACACCCUUCAAAAACAACAGAGGAUUGAGCAUCA
# B12: chr11:87793471:87793472:-_ENSMUSG00000020483_ENSMUST00000020775|mus_mus|mus_mus_mus_hu_False|18_108 (ssRNA)
# RNA: GGGAGUUCUACAGUCCGACGAUCUGGGGGCUGGGGAAAAAGAAUAAGCUGGAUCCCCCACCCCCCCACAUUGUCAACCCUACACGAGAGUUUUGAAGGCGACUCAUGAAAAUCAGCCUCAAUUGGCGCAAUGACCACCCCACCCAACAGAGGAUUGAGCAUCA
# B13: chr17:60770872:60770873:+_ENSG00000011028_ENST00000303375|hu_hu|hu_hu_hu_mus_True|28_108 (ssRNA)
# RNA: GGGAGUUCUACAGUCCGACGAUCUCUCUUUUCUUUUAAAAAAAAAGACAAACAAUAAUAGCACAUUUCGAGAAUCAAGAACUACAAUAGAGGGUCCGCUUUGAGUUGUCCAUGUUCUCGUCCUGCACUGGGACACGGGGACUGCAACAGAGGAUUGAGCAUCA
# B14: chr7:99593380:99593381:+_ENSMUSG00000052572_ENSMUST00000098308|mus_mus|motif|central (ssRNA)
# RNA: GGGAGUUCUACAGUCCGACGAUCCUGGGGUGAGAAGGCUGCCCAACUCUAGGGCAGAGAGCCCAUCAGAGGUUCAUCCCGGUACCUGGUACUUUGAGCAAACCCAAGCCUUCCUGCAUACUGUGAUGUCUUUUCCGUCCCACCCAACAGAGGAUUGAGCAUCA
# B15: chr2:119552488:119552489:+_ENSMUSG00000027304_ENSMUST00000028767|mus_mus|motif|central (ssRNA)
# RNA: GGGAGUUCUACAGUCCGACGAUCAAACAUCGCUUCUUUCCACUUCAUGAAUUCACUUUCAGUGAAUUCUUGGUUGGACACAAACUCGGGGCGGAACACUCGCUGGUCAUUGCCAUGCCGUAGCUGGAGCCCUUUAUUUGUUCUCAACAGAGGAUUGAGCAUCA
# B16: chr7:56126341:56126342:+_ENSG00000146731_ENST00000540286|hu_mus|hu_hu_hu_mus_True|1_98 (ssRNA)
# RNA: GGGAGUUCUACAGUCCGACGAUCCAUGUUUCUCCUCUUAGCUCUGCGCAGAGCUACGAUCCCUUCUUUCGCAAGGGCAUCUAAGGAAAAGGGGUCAAUCCCCUUUUGAUUAAUAACGACAAAUCCUUUAUCUGAGUCGCCACACAACAGAGGAUUGAGCAUCA
# B17: chr17:37088456:37088457:-_ENSMUSG00000036398_ENSMUST00000040402|mus_hu|motif|central (ssRNA)
# RNA: GGGAGUUCUACAGUCCGACGAUCGUAACCGUUGUCUCAGUGACGGUCUCGCUCAGCCCAGCCCCUGCCUCGGCCAUGGCGGAGGCUCAGGACAGGGAGGAGAGGAGGAAGGGGGAUGAGACACCCUUCCCUUUUUCUGUCGCUCAACAGAGGAUUGAGCAUCA
# B18: chr10:1038518:1038519:+_ENSG00000107937_ENST00000545048|hu_hu|hu_hu_hu_mus_False|1_68 (ssRNA)
# RNA: GGGAGUUCUACAGUCCGACGAUCCAGUCUGUCAUGGUAAUUCUGUUGAGUAAAUUUGACUUUUCUCAUGUAAAAAUGUCGAAUCCGAUGAAUUUGAUAAUGUUUAUGAAUAACCGUUGGAGUCUUUCGUUGAGUCUUCGACAACAACAGAGGAUUGAGCAUCA
# B19: chr4:25749455:25749456:-_ENSG00000091490_ENST00000264868|hu_hu|hu_hu_hu_mus_False|88_98 (ssRNA)
# RNA: GGGAGUUCUACAGUCCGACGAUCGCACUAUGACCUCCCCUAGAAAAAUUCAAGGAGAAAAAUGUAAACCAAUGUACAAUGUUAUCGCCUUCCCUGUGUGUGGAGUGUUUGUCUCAAGGCUCCUUCUAGCUGCUGGAUUUGGGACAACAGAGGAUUGAGCAUCA
# B20: chr7:141441981:141441982:+_ENSG00000106028_ENST00000265304|hu_mus|hu_hu_hu_mus_False|48_78 (ssRNA)
# RNA: GGGAGUUCUACAGUCCGACGAUCCUCAUGUCUUACAAACUGACGAAAUACCUGUAAUACAGGUCUUCGAAACAUGGCUUCUGUUUUCUUUUCUUACUAAUCUUUAGGCUUUUCCUAAAGGAAAGAAAGAAAAGAGAAAAAUGACAACAGAGGAUUGAGCAUCA
# B21: chr8:8869160:8869161:+_ENSG00000104626_ENST00000250263|hu_mus|FALSE|FALSE (ssRNA)
# RNA: GGGAGUUCUACAGUCCGACGAUCGAUUUCAUGUAGGAACUCAGCUGGGUUCCCCUCUUCACAAGUAGCCUCAAAGUCAAUGAUACAAAUGUAGUCAUAGUAACUGUCCCCAGCGGAGCUCUCUUUCAGCAUCAACUUCUGCUUCAACAGAGGAUUGAGCAUCA
# B22: chr5:38528984:38528985:-_ENSMUSG00000029126_ENSMUST00000031009|mus_mus|motif|central (ssRNA)
# RNA: GGGAGUUCUACAGUCCGACGAUCGAUUCAGAUUGAAACAUAAACAUACUUUUCUUACAAAGAUUGUGGACUUAGAUAUUCGGUUUGCAAGGUGCCACAUCAGCCCCCCCCACCAGCCGUCCUGCCCCUUCCCACAGCACAGGACAACAGAGGAUUGAGCAUCA
# Target: T1, UNK ZnF1-3
# Test: nsRBNS (natural sequence RNA bind-n-seq); RBNS binding buffer (assumed for nsRBNS): 25 mM Tris pH 7.5, 150 mM KCl, 3 mM MgCl2, 0.01% Triton X-100, 500 ug/ml BSA, 20 U/ml SUPERase-In, 4 C; UNK is unkempt and MSI1 is Musashi-1; names of the RNAs are library labels; protein concentration not given here; high values mean tight binding
row,Binder,binding signal
1,B1,1.71 enrichment R
2,B2,0.894 enrichment R
3,B3,0.248 enrichment R
4,B4,0.812 enrichment R
5,B5,1.37 enrichment R
6,B6,0.907 enrichment R
7,B7,0.347 enrichment R
8,B8,1.89 enrichment R
9,B9,0.783 enrichment R
10,B10,0.696 enrichment R
11,B11,0.672 enrichment R
12,B12,1.24 enrichment R
13,B13,0.647 enrichment R
14,B14,1.32 enrichment R
15,B15,0.606 enrichment R
16,B16,0.833 enrichment R
17,B17,0.474 enrichment R
18,B18,0.604 enrichment R
19,B19,1.12 enrichment R
20,B20,0.396 enrichment R
21,B21,0.925 enrichment R
22,B22,1.29 enrichment R

# — paper PMC12136788
